The supplement of paper PMC4967469

Legend:
Assay in all cases: Viability of human cancer cell lines after 72 h of drug (GDSC screen)
[1] = compound: C/C(O)=C(\C#N)C(=O)Nc1cc(Br)ccc1Br [LFM-A13]; settings: top dose 16 µM; top dose inferred
Experimental: (§1)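 Human cancer cell lines in 384-well plates, medium with 10% serum, drug for 72 h over a 256-fold dose range (nine 2-fold or five 4-fold steps up to the top dose). Adherent lines were fixed and stained with the nucleic acid dye Syto60, suspension lines read with resazurin; signal relative to control wells, capped at 0 and 100%. One two-parameter sigmoid per drug and line, fitted in a mixed model over all curves with the slope shared within a line.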

[2] = compound: CC(C)c1ccccc1Cc1cc(C(=O)Nc2ccc(S(=O)(=O)c3ccccc3C(C)(C)C)cc2)c(O)c(O)c1O [TW-37]; settings: top dose 5 µM
Experimental: as §1

[3] = compound: CC(O)(CS(=O)(=O)c1ccc(F)cc1)C(=O)Nc1ccc(C#N)c(C(F)(F)F)c1 [Bicalutamide]; settings: top dose inferred
Experimental: as §1

[4] = compound: CCNC(=O)c1noc(-c2cc(C(C)C)c(O)cc2O)c1-c1ccc(CN2CCOCC2)cc1 [AUY922]; settings: top dose 0.256 µM; top dose inferred
Experimental: as §1

[5] = compound: Cc1ccc(Nc2cc(-c3cccc(N4C(=O)c5ccccc5C4=O)c3)ncn2)cc1NS(C)(=O)=O [KIN001-270]; settings: top dose 20 µM; top dose inferred
Experimental: as §1

[6] = compound: Cc1cn(-c2cc(NC(=O)c3ccc(C)c(Nc4nccc(-c5cccnc5)n4)c3)cc(C(F)(F)F)c2)cn1 [Nilotinib]; settings: top dose 2 µM
Experimental: as §1

[7] = compound: Nc1ccn([C@@H]2O[C@H](CO)[C@@H](O)C2(F)F)c(=O)n1 [Gemcitabine]; settings: top dose 1.024 µM
Experimental: as §1

[8] = compound: O=S(=O)(c1ccccc1)N(CC(F)(F)F)c1ccc(C(O)(C(F)(F)F)C(F)(F)F)cc1 [T0901317]; settings: top dose 10.24 µM; top dose inferred
Experimental: as §1

[9] = compound: S=C(NCc1ccc2c(c1)OCO2)N1CCN(c2ncnc3c2oc2ccccc23)CC1 [MP470]; settings: top dose 20 µM; top dose inferred
Experimental: as §1

[10] = top dose 10 µM, screen: GDSC drug entry 1502
[11] = top dose 1.024 µM, screen: GDSC drug entry 150

| Cell Line | AUC [1] | IC50 [1] [µM] | AUC [2] | IC50 [2] [nM] | AUC [3, 10] | IC50 [3, 10] [µM] | AUC [4] | IC50 [4] [nM] | AUC [5] | IC50 [5] [µM] | AUC [6] | IC50 [6] [nM] | AUC [7] | IC50 [7] [nM] | AUC [8] | IC50 [8] [µM] | AUC [9] | IC50 [9] [µM] | AUC [3, 11] | IC50 [3, 11] [µM] |
| --- | --- | --- | --- | --- | --- | --- | --- | --- | --- | --- | --- | --- | --- | --- | --- | --- | --- | --- | --- | --- |
| C3A (liver, adherent) | 0.987 | > 16 | 0.781 | 2160 | 0.961 | > 10 | 0.529 | 19.2 | 0.988 | > 20 | 0.988 | > 2000 | 0.261 | 12.8 | 0.988 | > 10.2 | 0.928 | > 20 | – | – |
| JEG-3 (urogenital system, adherent) | 0.991 | > 16 | 0.581 | 509 | 0.975 | > 10 | 0.689 | 50.8 | 0.991 | > 20 | 0.99 | > 2000 | 0.482 | 57.6 | 0.972 | > 10.2 | 0.51 | 1.33 | 0.991 | > 1.02 |
| EW-7 (Ewing sarcoma, semi-adherent) | 0.91 | > 16 | 0.873 | 3820 | 0.982 | > 10 | 0.439 | 11.2 | 0.935 | > 20 | 0.984 | > 2000 | 0.033 | < 4 | 0.99 | > 10.2 | 0.527 | 1.46 | 0.986 | > 1.02 |
| SAS (head and neck, adherent) | 0.98 | > 16 | 0.336 | 104 | 0.973 | > 10 | 0.716 | 70.7 | 0.971 | > 20 | 0.977 | > 2000 | 0.32 | 18.9 | 0.948 | > 10.2 | 0.909 | > 20 | 0.94 | > 1.02 |
| WM1552C (melanoma, adherent) | 0.981 | > 16 | 0.687 | 1040 | 0.981 | > 10 | 0.578 | 26.2 | 0.984 | > 20 | 0.987 | > 2000 | 0.066 | < 4 | 0.984 | > 10.2 | 0.966 | > 20 | 0.988 | > 1.02 |
| NCI-H1693 (lung adenocarcinoma, adherent) | 0.951 | > 16 | 0.678 | 1330 | 0.941 | > 10 | 0.627 | 44.2 | 0.965 | > 20 | 0.898 | > 2000 | 0.512 | 70.2 | 0.976 | > 10.2 | 0.977 | > 20 | 0.97 | > 1.02 |
| RPMI-7951 (melanoma, adherent) | 0.947 | > 16 | 0.677 | 956 | – | – | 0.39 | 8.07 | 0.96 | > 20 | 0.987 | > 2000 | 0.171 | 6.69 | 0.969 | > 10.2 | 0.919 | > 20 | 0.987 | > 1.02 |
| KYSE-50 (oesophagus, adherent) | 0.97 | > 16 | 0.457 | 242 | 0.989 | > 10 | 0.504 | 16.4 | 0.987 | > 20 | 0.99 | > 2000 | 0.361 | 27.5 | 0.959 | > 10.2 | 0.949 | > 20 | 0.99 | > 1.02 |
| NB12 (neuroblastoma, adherent) | 0.978 | > 16 | 0.403 | 155 | 0.944 | > 10 | 0.743 | 103 | 0.977 | > 20 | 0.978 | > 2000 | 0.58 | 114 | 0.901 | > 10.2 | 0.895 | > 20 | 0.978 | > 1.02 |
| 5637 (bladder, adherent) | 0.976 | > 16 | 0.601 | 574 | 0.985 | > 10 | 0.528 | 19 | 0.984 | > 20 | 0.989 | > 2000 | 0.743 | 292 | 0.989 | > 10.2 | 0.947 | > 20 | 0.989 | > 1.02 |
| SK-N-SH (neuroblastoma, adherent) | 0.968 | > 16 | 0.399 | 165 | 0.986 | > 10 | 0.477 | 13.8 | 0.977 | > 20 | 0.973 | > 2000 | 0.222 | 10 | 0.984 | > 10.2 | 0.945 | > 20 | 0.987 | > 1.02 |
| TT (thyroid, adherent) | 0.978 | > 16 | 0.629 | 817 | 0.972 | > 10 | 0.965 | > 256 | 0.982 | > 20 | 0.968 | > 2000 | 0.98 | > 1020 | 0.982 | > 10.2 | 0.897 | > 20 | 0.983 | > 1.02 |

IC50 is the fitted dose that halves viability relative to control wells, and lower means more sensitive; where the fit passes the top or lowest dose, that dose stands as a limit. AUC is the area under the same curve over the 256-fold range up to the top dose, as a fraction; it is 1 without any effect and falls as sensitivity rises. For some assays here: A top dose marked as inferred comes from the curve model; the source does not state it. For some assays here: Drugs with an entry number were screened twice under separate entries, and the two screens often disagree.
